The values below come from the supplement of paper PMC12889115.

The other results are listed elsewhere or left out. No stated cut-off is given here; in the data, active = 25% or less and inactive = the rest. Most values come without repeats; read them as rough.
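Further: compounds tested were the hits of an earlier 50 µM broth growth screen of a drug-like diversity library run with polymyxin B.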

For the test, the system named is Salmonella enterica serovar Typhimurium SL1344. In words: intramacrophage bacterial GFP load (SAFIRE), percent of DMSO control (% of DMSO); higher = more intracellular bacteria (less inhibition). The settings on record: 25 µM; system: infected RAW 264.7 macrophages. The procedure:
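Secondary screen of the 553 primary hits at 25 µM. (i) S. Typhimurium SL1344 grown in Mueller-Hinton broth with 0.5 µg/mL polymyxin B, OD600 read after 18 h. (ii) SAFIRE assay: RAW 264.7 macrophages infected with S. Typhimurium sifB::gfp (MOI 30); compound added 2 h post-infection; cells fixed at 18 h; GFP-positive pixel fraction per macrophage imaged by confocal microscopy and expressed as % of DMSO control.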
As to `CN(CCc1cnn(C)c1)c1nncc(-c2ccc3ccccc3c2)n1`, the “intramacrophage bacterial GFP load” value was inactive: 98.4.

In the case of `COc1ccc(-c2nn(-c3ccccc3F)cc2CN(C)C(C)c2nccs2)cc1` (stereo not given), the “intramacrophage bacterial GFP load” value was inactive: 83.8.

As for `CN1C(=O)CC(CC(=O)N2CCCC(C(=O)c3nccn3C)C2)(c2ccc(-c3ccccc3)cc2)C1=O` (stereo not given), the “intramacrophage bacterial GFP load” value was inactive: 50.6. As for `CCc1ocnc1C(=O)NC1CC(=O)N(CCc2cccc(Cl)c2)C1` (stereo not given), the figure is inactive: 100; as for `Cc1ccc(CN(C)C(=O)CC2(c3ccccc3)CC(=O)N(CCCOc3cccnc3)C2=O)cc1` (stereo not given), inactive: 37.5.
